Results taken from PubChem BioAssay AID1346428 (National Center for Advancing Translational Sciences (NCATS), 2018).
“And” between values parts separate entries of the source, which are not always exact repeats. Equal entries are not always repeated. About 1,200 (2.5%) of roughly 48,000 compounds were called active. Not shown: some 2% with an inconclusive outcome.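 How the source made its calls: active means activation of at least 60% and not above a set upper limit (about 1 call in 100 departs from these limits); inconclusive means activation of 40% to 60%, or above that upper limit; inactive means activation under 40%.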 This is one part of the list.

target: Probable G-protein coupled receptor 32 (Homo sapiens) (UniProt O75388); experiment: qHTS for Agonists of Human Resolvin D1 Receptor DRV1; settings: CHO-K1 GPR32 beta-arrestin PathHunter luminescence, 90 min; at 76.9 µM; stronger effect = higher value; zero percent set by DMSO-only wells
Sequence of UniProt O75388 (O75388 whole entry, looked up, the tested form may be a part): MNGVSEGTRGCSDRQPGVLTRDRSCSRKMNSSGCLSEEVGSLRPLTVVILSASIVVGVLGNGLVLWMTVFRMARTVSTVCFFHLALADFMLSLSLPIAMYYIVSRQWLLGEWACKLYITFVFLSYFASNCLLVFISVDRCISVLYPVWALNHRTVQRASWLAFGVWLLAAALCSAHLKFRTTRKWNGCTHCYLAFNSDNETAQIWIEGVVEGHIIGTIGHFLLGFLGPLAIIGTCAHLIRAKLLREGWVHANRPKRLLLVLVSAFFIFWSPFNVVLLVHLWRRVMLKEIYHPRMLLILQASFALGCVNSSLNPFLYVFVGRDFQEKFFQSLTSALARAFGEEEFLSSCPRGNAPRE
Procedure, shortened: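 PathHunter enzyme-fragment complementation, CHO-K1 GPR32 stable line; 2,500 cells/well, overnight attach; cpd 90 min 37 °C 5% CO2; detection reagent 1 h RT; chemiluminescence. DMSO = EC0.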

Compound	activation
Cc1cccc(-c2cc(NC(=O)c3ccccc3C)n(-c3ccccc3)n2)c1	inactive: -2.43%
Cc1ccc(C)c(CNC(=O)C2CCCCN2S(=O)(=O)c2ccc(F)cc2)c1 (configuration not stated)	inactive: -6.77%
Cc1ccc(C)c(N2CCN(C(=O)CN3C(=O)COc4ccc(S(=O)(=O)N5CCOCC5)cc43)CC2)c1	inactive: -2.91%
CCOc1ccc(NC(=O)c2cccc(N3CCCS3(=O)=O)c2)cc1	inactive: 32.4%
CCN(c1cccc(C)c1)C(CNS(=O)(=O)c1ccccc1)c1ccccc1 (configuration not stated)	inactive: -1.63%
CCC(=O)N1c2ccccc2CC1C(=O)NCCCN1CCN(c2ccccc2)CC1 (configuration not stated)	inactive: -3.96%
O=C(Nc1ccc(F)c(Cl)c1)C1CCCN(c2ncnc3onc(-c4ccc(F)cc4)c23)C1 (configuration not stated)	inactive: -19.3%
CCCS(=O)(=O)c1c(S(=O)(=O)CCC)c2cc(C(C)(C)C)ccn2c1C(=O)c1ccc(OC)c(OC)c1	inactive: -23%
COc1ccc(C2C=C(c3ccc(C)cc3)Nc3c(C(=O)Nc4ccccc4)cnn32)cc1 (configuration not stated)	inactive: -43.6%
COc1ccc(Br)cc1CNC(=O)CCCn1c(=O)c2cccn2c2cccnc21	inactive: -17.6%
Cc1ccc(C)c(NC(=O)c2cc(S(=O)(=O)N3CCc4ccccc4C3)ccc2F)c1	inactive: -15.4%
COc1ccccc1CNC(=O)c1cc2sccc2n1Cc1ccc(F)cc1	inactive: -0.0875%
CN=C(NC#N)NCCSCc1nc[nH]c1C	inactive: -13.6% and inactive: 2.07%
COc1ccc(-c2noc(-c3ccccc3OCC(=O)Nc3ccc(C(C)=O)cc3)n2)cc1	inactive: 3.64%
O=C(Cn1ncc2c3ccccc3n(Cc3ccccc3)c2c1=O)N1CCCCCC1	inactive: -14.5%
COCCCn1c(SCc2ccccc2F)nc2c(sc3ccccc32)c1=O	inactive: 1.7%
COc1ccccc1NC(=O)Cn1c(=O)n(-c2ccccc2Cl)c(=O)c2sc3ccccc3c21	inactive: 2.36%
CCc1cccc(NC(=O)Cn2c(C(=O)OC)cc3occc32)c1	inactive: -15.2%
COc1cccc(N2CCN(C(=O)c3cnc4c(-c5ccc(F)cc5)c(C)nn4c3C)CC2)c1	inactive: -24.1%
COc1ccc(C(=O)Oc2c(Sc3ccccc3)c(C)nn2-c2ccccc2)c(OC)c1	inactive: -5.19%
COc1ccccc1CNC(=O)C(=O)NCC(c1ccco1)S(=O)(=O)c1ccc(F)cc1 (configuration not stated)	inactive: -11%

Compound	activation
COc1ccc(C)c2sc(NC(=O)c3ccc(S(=O)(=O)N4CCOCC4)cc3)nc12	inactive: -2.63%
Cc1cccc(C)c1OCCn1c(CCNC(=O)C2CCCCC2)nc2ccccc21	inactive: -32.6%
CCOc1ccc(NC(=O)c2cc(-c3ccc(C)c(F)c3)on2)c([N+](=O)[O-])c1	inactive: 31.8%
COc1ccc(C2Nc3ccccc3-c3cc(C)nn32)c(OC)c1 (configuration not stated)	inactive: -13.2%
COC(=O)c1ccccc1NS(=O)(=O)c1cc2c3c(c1)CC(=O)N3CCC2	inactive: -7.93%
CC(C)(C)c1ccc(C(=O)NCC(c2ccco2)S(=O)(=O)c2ccccc2)cc1 (configuration not stated)	inactive: -5.03%
CCN(CC)S(=O)(=O)c1ccc2c(c1)N(CC(=O)Nc1ccc(Cl)cc1)C(=O)C1CCCN21 (configuration not stated)	inactive: -21.4%
CCCCCOc1ccc(NC(=O)Cn2c(-c3nonc3N)nc3ccccc32)cc1	inactive: -50.7%
COc1ccc(-c2nc3ccccc3n2Cc2ccccc2)cc1	inactive: 1.75%
Cc1c(Cl)ccc2sc(N3CCN(C(=O)CCS(=O)(=O)c4ccc(F)cc4)CC3)nc12	inactive: 18.2%
COc1cccc(C(=O)Nc2nc(-c3nnn(-c4ccccc4C(F)(F)F)c3C)ns2)c1	active: 90.8%
CCOc1ccc2nc(N(Cc3cccnc3)C(=O)c3cccs3)sc2c1	inactive: -19.7%
COc1cccc(-c2nc(Cn3c(=O)cc(C)c4c(C)nn(-c5ccccc5)c43)c(C)o2)c1OC	inactive: -17.3%
Cc1ccc2c(c1)C(c1ccccc1)N(C(=O)COc1ccc(Cl)cc1Cl)CC(=O)N2 (configuration not stated)	inactive: -25.5%
Cc1ccc(-n2nc(C)c3c(C(=O)Nc4ccccc4C(F)(F)F)cc(C)nc32)cc1	inactive: -25.9%
CC1=C(C(=O)Nc2ccccc2)C(c2ccccn2)n2nc(SCc3ccccc3)nc2N1 (configuration not stated)	inactive: 9.28%
CCCCN1C(=O)C(O)(CC(=O)c2ccc(CC)cc2)c2cc(Br)ccc21 (configuration not stated)	inactive: -13.4%
CCCN(C(=O)c1cc2c(=O)oc3ccc(C)cc3c2s1)c1ccc(OCC)cc1	inactive: 6.21%
CCSc1nc(-c2cccc(Cl)c2)nc2c1Cc1c(CO)cnc(C)c1O2	inactive: 11.9%
COc1cccc(CNC(=O)Cn2nc(C)n3c(cc4cc(C)ccc43)c2=O)c1OC	inactive: -6.94%
Cn1c(=O)c2cc(S(=O)(=O)NC(Cc3ccccc3)C(=O)Nc3ccc(F)cc3)ccc2n(C)c1=O (configuration not stated)	inactive: -1.4%

Compound	activation
CC(=O)N1CCCc2cc(S(=O)(=O)N(C)CC(=O)Nc3cccc(Cl)c3C)ccc21	inactive: 2.11%
CCc1ccc(S(=O)(=O)NCCc2cn3ccsc3n2)cc1	inactive: -1.38%
CCCCC(=O)N1c2ccccc2C(C)(c2ccccc2)CC1(C)C (configuration not stated)	inactive: -13%
Cc1cccc(CNC(=O)c2cnc3c(-c4cccc(C)c4)c(C)nn3c2C)c1	inactive: -15.8%
N[C@H](C(=O)O)[C@H](O)C(=O)O	inactive: 4.64%
COc1ccc(OC)c(CCNc2ncnc3onc(-c4ccc(Cl)cc4)c23)c1	inactive: -5.98%
O=C(c1ccccc1Cl)n1nc(-c2ccco2)nc1NCc1cccs1	inactive: 2.91%
CCOC(=O)c1ccc(CN(Cc2ccc(F)cc2)S(=O)(=O)c2ccc(F)c(C(=O)Nc3cc(Cl)ccc3OC)c2)cc1	inactive: -9.47%
Cc1ccc(N2CCN(C(=O)c3c(C)oc4ncn(C)c(=O)c34)CC2)c(C)c1	inactive: -6.71%
CCN(CC)c1ccc(NC(=O)COCc2cc(-c3ccc4c(c3)OCO4)on2)c(C)c1	inactive: -29.5%
Cc1ccccc1Cn1c2ccccc2c2cnn(CC(=O)NCc3cccc(Cl)c3)c(=O)c21	inactive: 3.24%
Cc1ccc(NC(=O)CSc2nc3c(oc4ccccc43)c(=O)n2Cc2ccco2)cc1F	inactive: -3.85%
Cc1nc(-n2nc(C)c(Cc3ccc(Cl)cc3)c2C)sc1C(=O)N1CCC(C)CC1	inactive: -1.2%
CC(C)c1ccc(OCC(=O)Nc2ccc(S(=O)(=O)Nc3ncccn3)cc2)cc1	inactive: 21.4%
OC1(c2ccc(Cl)cc2)CCNCC1	inactive: -23.8%
CC(=O)N1CCCc2cc(S(=O)(=O)N(C)CC(=O)Nc3ccc(C(C)C)cc3)ccc21	inactive: 19.4%
COc1ccc(CNC(=O)c2cc3c(=O)n(Cc4ccco4)ccc3nc2C)c(OC)c1	inactive: -12.8%
Cn1cc(-c2cc3n(n2)CCC(=O)N3CCCC(=O)Nc2ccc(Cl)cc2)c2ccccc21	inactive: -5.72%
O=C1CC(c2ccccc2)Sc2ccccc2N1Cc1ccccc1F (configuration not stated)	inactive: -9.18%
CC(C)OC(=O)c1c(NC(=O)c2cccc(C(F)(F)F)c2)sc2c1CCCC2	inactive: -3.32%
COc1cccc(CNC(=O)c2sc3nc[nH]c(=O)c3c2C)c1	inactive: -4.51%

Compound	activation
COc1ccc(CNC(=O)CCC2N=C3c4ccccc4N=C(SCC(=O)NCCc4ccc(OC)c(OC)c4)N3C2=O)cc1 (configuration not stated)	inactive: -13.4%
CN(C)CCCSc1ccccc1NC(=O)/C=C/c1ccccc1	inactive: 3.52%
COc1ccc(NC(=O)Cn2ccn(-c3ccc(F)c(F)c3)c(=O)c2=O)cc1Cl	inactive: -5.65%
COCCn1c(C)cc(O)c(C(c2ccccc2)N2CCN(c3ccccc3F)CC2)c1=O (configuration not stated)	inactive: -13.2%
COc1cc([C@@H]2c3cc4c(cc3[C@H](O)[C@H]3COC(=O)[C@H]23)OCO4)cc(OC)c1OC	inactive: 36.1%
CCS(=O)(=O)c1ccc(C(=O)N2CCN(c3nc4c(OC)ccc(C)c4s3)CC2)cc1	inactive: 10.2%
CC(Nc1ccc(-c2nc(-c3cccnc3)no2)cc1[N+](=O)[O-])c1ccccc1 (configuration not stated)	inactive: 5.98%
O=C(O)CN(CCOCCOCCN(CC(=O)O)CC(=O)O)CC(=O)O	inactive: 32.5% and inactive: 0.879%
O=C(Cn1ncc2ccsc2c1=O)N1CCN(c2ccc(Cl)cc2)CC1	inactive: 38.5%
Cc1ccc(NC(=O)CCn2nc(C)c3c(C)n(-c4ccccc4)nc3c2=O)cc1Cl	inactive: 4.09%
COc1ccccc1-c1nc(CNC(=O)NC2CCCCC2)c(C)o1	inactive: 20.4%
COc1cccc(NC(=O)CSc2cc(C)c3ccccc3n2)c1	inactive: 19%
Cc1ccc2c(Sc3ccc(Cl)cc3)c(C(=O)N3CCCCC3)[nH]c2c1	inactive: -36.1%
COc1ccc(NC(=O)c2c(-c3ccc(C)cc3)nnc3ccccc23)cc1OC	inactive: -23.4%
CC1CCCCN1Cc1nc2c(c(=O)n(C)c(=O)n2C)n1Cc1ccc(Br)cc1 (configuration not stated)	inactive: -2.54%
CC(C)c1ccc(NC(=O)c2cn(C3CCCC3)c(=O)c3c2c2ccccc2n3C)cc1	inactive: -5.11%
CC(C)C[C@H](NC(=O)[C@@H](O)[C@H](N)Cc1ccccc1)C(=O)O	inactive: 3.24%
CCCOc1ccc(NC(=O)CC2C(=O)N(c3cccc(OC)c3)C(=O)N2CCc2ccncc2)cc1 (configuration not stated)	inactive: -20.8%
Cc1cc(C)c(NC(=O)CSc2nc(=O)n(Cc3ccncc3)c3c2CCC3)c(C)c1	inactive: -1.8%
